Test results from patent publication US20220056135A1 (OSE IMMUNOTHERAPEUTICS, published 2022).

Legend:
[1] = molecular target: T1, Bicki anti-PD1VL-Sirpa, chimeric anti-PD1 antibody (heavy chain SEQ ID NO: 53, light chain SEQ ID NO: 54) … (human, UniProt P78324 31-373); experiment: ELISA, human recombinant PD-1 immobilised, detection with anti-human Fc-peroxidase, TMB
T1 construct: Antibody-SIRPa fusion protein; also called anti-PD1VL-SIRPa antibody chimeric; not shown: peptide linker
Description: (§1) Revelation was performed with an anti-human Fc antibody coupled to peroxidase. Colorimetry was determined at 450 nm using TMB substrate.

[2] = molecular target: T2, Bicki anti-PD1VH-Sirpa, chimeric anti-PD1 antibody (heavy chain SEQ ID NO: 53, light chain SEQ ID NO: 54) … (human, UniProt P78324 31-373); experiment: as above
T2 construct: Antibody-SIRPa fusion protein; also called anti-PD1VH-SIRPa antibody chimeric; not shown: peptide linker
Description: as §1

[3] = molecular target: T1, Bicki anti-PD1VL-Sirpa, chimeric …; experiment: competition ELISA: PD-L1 immobilised, antibody mixed with biotinylated PD-1 at 0.6 µg/mL, streptavidin-peroxidase; blocked ligand PD-L1
Description: (§2) Competitive ELISA assay was performed by PD-1:PD-L1 Inhibitor Screening ELISA Assay Pair (AcroBiosystems; USA; reference EP-101). In this assay, recombinant hPDL1 was immobilized on plastic at 2 μg/ml in PBS pH 7.4 buffer.

[4] = molecular target: T2, Bicki anti-PD1VH-Sirpa, chimeric …; experiment: as above
Description: as §2

SIRPa Fc = molecular target: T3, SIRPa Fc (human ( for this reagent), UniProt P78324); experiment: flow cytometry on Jurkat cells, anti IgG-PE; ratio of the median fluorescence on PD-1+CD47+ cells over that on CD47+ cells
T3 construct: also called SIRPa-Fc molecule

B1: recombinant hPD1 (Sino Biologicals, reference 10377-H08H) (receptor)
chain: not shown
notes: also called Human recombinant PD-1 protein; PD1-His recombinant protein
- binding result [1]: binds
- binding result [2]: binds

B2: biotinylated Human PD1 (AcroBiosystems, reference EP-101) (receptor)
chain: not shown
modifications: biotinylated (site not stated)
notes: also called biotinylated recombinant human PD-1; rec PD1
- binding result [3]: binds
- binding result [4]: binds

B3: PD-1 on Jurkat cells (PD-1+ CD47+ Jurkat cells; Jurkat stably expressing PD-1) (receptor)
chain: not shown
notes: whole, on cells; also called PD-1 receptor
- binding result (SIRPa Fc): no binding (tested: 4.5 nM)
